# In PubChem BioAssay AID2202238 (Ras Initiative Chemistry Research Team, Frederick National …, 2025):
# The other results are listed elsewhere or left out. Further columns of the screen follow, without active or inactive calls.
# Biological target: GTPase KRas (Homo sapiens) (UniProt P01116)
# Test: Fragment capture on engineered cysteines, share of protein labelled (AID 2202238)
# Parameters: protein at 5 µM with 500 µM competing thiol for 1.5 h
# Conditions: KRAS G12D cysteine mutants, disulfide tethering, MALDI-TOF labeling, stronger effect = higher value, fragment at 500 µM
# [1] = measured here: G60C mutant labeling
# [2] = measured here: G75C mutant labeling
# [3] = measured here: H94C mutant labeling
# [4] = measured here: I36C mutant labeling
# [5] = measured here: L120C mutant labeling
# [6] = measured here: M67C mutant labeling
# [7] = measured here: M72C mutant labeling
# [8] = measured here: N26C mutant labeling
# [9] = measured here: N86C mutant labeling
# [10] = measured here: P121C mutant labeling
# [11] = measured here: S122C mutant labeling
# [12] = measured here: S136C mutant labeling
# Sequence of UniProt P01116 (P01116 whole entry, looked up, the tested form may be a part): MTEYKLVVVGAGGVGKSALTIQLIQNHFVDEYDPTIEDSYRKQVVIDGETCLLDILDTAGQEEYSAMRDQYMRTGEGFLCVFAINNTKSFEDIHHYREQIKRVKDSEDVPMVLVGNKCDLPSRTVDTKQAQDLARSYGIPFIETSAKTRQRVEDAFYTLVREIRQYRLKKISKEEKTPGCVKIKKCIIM
SMILES,percent labeling [1] [%],percent labeling [2] [%],percent labeling [3] [%],percent labeling [4] [%],percent labeling [5] [%],percent labeling [6] [%],percent labeling [7] [%],percent labeling [8] [%],percent labeling [9] [%],percent labeling [10] [%],percent labeling [11] [%],percent labeling [12] [%]
Cc1nc(-c2cccc(C(=O)NCCS)c2)no1,49.8,19.8,33.1,24.1,36.4,23.7,49.5,43.6,21.8,25.6,12.6,49.3
Cc1cc(C(=O)NCCS)c2c(C)nn(-c3ccccc3)c2n1,17.2,7.2,10.5,8.2,7.9,13.1,20.3,20.6,6.4,8.1,0,12.2
COc1cc(OC)c2cc(C(=O)NCCS)[nH]c2c1,14.9,7,13.3,11.5,21.6,12.3,28.2,28.2,11.6,14.9,11.6,20.7
CCOc1ccc(NC(=O)c2ccc(NC(=O)CCS)cc2)cc1,,3.8,2.3,5.9,4.3,3.4,3.5,,3.2,4.1,0,6.3
O=C(NCCS)c1cccc(-n2nccc2C(F)(F)F)c1,27.9,16.9,19.3,13.3,19.7,17.2,34.6,28.8,17.2,16.6,12.3,24
Cc1cc(Cl)cc2cc(C(=O)NCCS)[nH]c12,26.3,16.9,11.6,10.6,13.9,7.8,54.5,21.6,16.1,10.2,8.5,13
COc1cccc(COCC(=O)NCCS)c1,40.2,19.5,30.5,28.3,45.4,31.8,44.4,47.2,24.5,30.3,34.8,58.2
O=C(CCS)Nc1ccc2c(c1)C(F)(F)C(=O)N2,,18.6,25.8,32.3,17.7,24.5,42.3,,9,21.4,21.7,39.6
O=C(CCS)N1CC(O)(c2cccnc2F)C1,,20.9,19.6,20.3,21.8,35,20.5,,13.3,30.2,32.1,43.3
O=C(NCCS)c1cccc(Oc2ccncc2)c1Cl,,27.8,39.9,45.9,34.3,45.2,75.1,,38.6,33.6,35,54.3
Cc1n[nH]c(C)c1C1COCCN1C(=O)CCS (centres undefined),,11.3,32.2,37.2,26.8,40.1,13.2,,24.7,31.4,27.9,53.1
CC(C)C(=O)Nc1ccc(C(=O)NCCS)cc1,12.6,10.7,18.4,16.5,18.4,15.4,23.8,33.2,17.1,15.7,12.1,29.4
Cn1ncc(NC(=O)CCS)c1-c1ccc(F)cc1F,,16.6,50,41.5,29.5,43.4,30.8,,31.3,34.5,30.7,57.8
CCNC(=O)Cn1cc(-c2cccc(NC(=O)CCS)c2)cn1,,5.6,31,25.9,15.8,17,32,,23.5,12.3,14.6,23.1
CCC(C(=O)NCCS)n1nnc(-c2ccsc2)n1 (centres undefined),41.8,16.1,21.8,15.5,33.4,31,41.4,28.9,16.8,21.1,19.1,26.7
CN(Cc1nc2ccsc2c(=O)[nH]1)C(=O)CCS,,11.6,38.6,41.8,39.9,40.3,35.8,,32.6,46.1,40,61.3
O=C(NCCS)c1cncc(-c2ccc(F)cc2)c1,24.6,10.5,12.8,12.5,14.9,15.1,44.9,32,10.4,17.1,10.6,22.2
CC(C)(COCc1ccccc1)C(=O)NCCS,35.6,15.3,28.4,14,31.6,25.6,25.2,25.7,5.3,22.4,17.9,31.6
CC(C)Cn1ncc2cc(C(=O)NCCS)cnc21,26.8,14.4,21.2,18.7,21.2,23.9,37,41.9,18.7,17.9,19.5,40.2
O=C(CCS)N1CCN(c2ncnc3c2oc2ccccc23)CC1,,24.9,20.4,22.2,11.8,17.4,29.3,,10.2,13.4,6.5,24
O=C(CCS)NCC1(c2cccc(Cl)c2)CC1,,14.7,32.3,30.3,30.2,30.9,41.4,,16.8,23.9,22.2,45.1
O=C(CCS)NCc1cc(OC2CCC2)ccn1,,14.4,40.3,35.1,33.9,39.9,27.3,,22.4,27.7,30.9,52.6
O=C(CCS)NCc1cccc(OC(F)F)c1,,13.9,37,39,33,31.6,41.5,,30.1,32.8,29.4,52.8
O=C(CCS)N1CCC(Oc2ccc3nccn3c2)CC1,,27.4,36.1,47.3,39,49.7,35.1,,22.1,36.2,31.8,53.4

SMILES,percent labeling [1] [%],percent labeling [2] [%],percent labeling [3] [%],percent labeling [4] [%],percent labeling [5] [%],percent labeling [6] [%],percent labeling [7] [%],percent labeling [8] [%],percent labeling [9] [%],percent labeling [10] [%],percent labeling [11] [%],percent labeling [12] [%]
Cc1ccc(C2CCC(NC(=O)CCS)CC2)cc1 (centres undefined),,8.3,22.5,19.3,20,13.6,31.6,,10,15,13.6,33.1
O=C(CCS)NC1(Cc2ccccc2F)CCCCC1,,7.2,18.3,22.8,14.6,12.7,48.8,,18.4,13.8,11.2,28.7
Cc1c(NC(=O)CCS)cnn1CC(F)F,,10.4,28.4,35.8,26.1,30.8,16.2,,17.9,35.4,40.2,48.7
O=C(NCCS)c1ccc(-n2cccn2)c(F)c1,29.2,13.3,10,9.6,16.1,9,40.4,28.7,11.5,14.3,9.7,17.5
O=C(Cn1c2ccccc2c(=O)c2ccccc21)NCCS,10.8,4.2,10.2,10.9,43.4,8.2,20.8,11.5,7.9,8,6.1,15.3
CCOC(=O)C12CC(C)(C1)OC21CCN(C(=O)CCS)CC1,,11.6,32.4,31.5,23.9,40.6,23.1,,21.4,26.4,29.8,52.7
CC1(C)CN(C(=O)CCS)c2cc(F)ccc21,,24.5,38.9,25.4,13.9,13.9,40.8,,25.7,15.7,12,35.6
Cn1nc(C(F)(F)F)cc1-c1ccc(NC(=O)CCS)cc1,,14.4,13,16.7,8.7,11,37.9,,14.5,12.2,7,15.6
CN1CCN(C(=O)CCS)CCC12CCOCC2,,6.8,26.8,36.2,25.8,35.6,7.3,,11,27.1,28,46.4
CCC(=O)Nc1cccc(NC(=O)CCS)c1C,,9.3,25.6,30.1,32.7,27,21,,25.8,31,37.1,48.7
O=C(Cn1cccc(C(F)(F)F)c1=O)NCCS,29.3,12.3,30.5,24.9,53.3,21.6,18.5,37,38,34,27.7,32.8
CC(=O)NCC1CCn2ncc(C(=O)NCCS)c2C1 (centres undefined),27.5,12.1,37.1,26.2,39.4,36.9,24.6,42.3,27,29.3,32.1,44.6
O=C(Cc1cnn(Cc2ccccc2)c1)NCCS,33.9,9.5,30.9,28.9,34.1,47.9,24.5,32.4,18.7,37.4,26.8,41.7
Cc1nn(C)c(C)c1C(CC(=O)NCCS)C(F)(F)F (centres undefined),62.2,13.5,34.8,36.2,30.3,34.6,23.5,30,24.7,39.8,25.7,37.4
O=C(CC(n1ccnc1)C(F)(F)F)NCCS (centres undefined),36.7,9.5,28.4,34.3,25.1,33.6,0,38.8,0,29.3,36.6,0
O=C(CCS)N1CC2C(C(F)(F)F)(C1)CS2(=O)=O (centres undefined),,6.3,29.8,34.3,32.3,34.5,20.9,,35.3,32.9,35,43.8
O=C(NCCS)C(c1ccccc1)n1cccn1 (centres undefined),44.8,20.8,32.7,30,52.4,32.7,30.2,39.1,23.2,35.8,34.2,62.4
O=C(NCCS)c1c[nH]c(=O)c(Br)c1,,17.3,31.9,38,35.2,38.8,51.8,,28.2,30.4,39.2,51.1
CCOc1ncc(C(=O)NCCS)cc1Cl,32.3,11.6,11.4,9.7,15.2,8.9,23.6,28.7,5.1,11.2,8.6,19.5
O=C(NCCS)C(Oc1ccc(Br)cc1Cl)c1ccccc1 (centres undefined),53.4,20.5,25,9.6,25.1,5.3,46,32.1,6.7,16.5,4.4,20.1
Cc1cc2c(o1)CC(C)(C)CC2NC(=O)CCS (centres undefined),,17.6,29.1,22.8,15.6,22.5,19.9,,6.8,24.3,19.3,40.9
CC(=O)NC(CC(=O)NCCS)c1ccc(F)cc1F (centres undefined),52.3,18,37.1,32.6,41.7,37.6,23.9,44.9,33,44.3,35,39.9
CCc1nn(C)c(OC)c1CNC(=O)CCS,,10.2,24.8,31.8,21.9,27.7,15.1,,7.3,33.1,30.3,45.4
